This is one part of the list.
Tests used:
Assay in all cases: glycan array binding signal (z-score within array); higher = stronger binding
Conditions in all cases: glycan notation: IUPAC condensed, linker removed
[1] = target: Neu5Ac(a2-3)Gal(b1-3)GalNAc
Method in brief: (§1)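 The binding signal is a Z-score computed within each array and averaged over linkers. Arrays of the same protein sequence at different concentrations or buffers were also averaged together. Data originate from 3228 arrays in the Consortium for Functional Glycomics database, kept only where the protein sequence was available.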

[2] = target: Neu5Ac(a2-3)Gal(b1-3)GalNAc(b1-3)Gal(a1-4)Gal(b1-4)Glc
Method in brief: as §1

[3] = target: Neu5Ac(a2-3)Gal(b1-3)GalNAc(b1-4)[Neu5Ac(a2-3)]Gal(b1-4)Glc
Method in brief: as §1

[4] = target: Neu5Ac(a2-3)Gal(b1-3)GalNAc(b1-4)[Neu5Ac(a2-8)Neu5Ac(a2-3)]Gal(b1-4)Glc
Method in brief: as §1

[5] = target: Neu5Ac(a2-3)Gal(b1-3)GalNAc6S
Method in brief: as §1

[6] = target: Neu5Ac(a2-3)Gal(b1-3)GlcNAc
Method in brief: as §1

[7] = target: Neu5Ac(a2-3)Gal(b1-3)GlcNAc(b1-2)Man
Method in brief: as §1

[8] = target: Neu5Ac(a2-3)Gal(b1-3)GlcNAc(b1-2)Man(a1-3)[GlcNAc(b1-4)][Neu5Ac(a2-3)Gal(b1-3)GlcNAc(b1-2)Man(a1-6)]Man(b1-4)GlcNAc(b1-4)GlcNAc
Method in brief: as §1

[9] = target: Neu5Ac(a2-3)Gal(b1-3)GlcNAc(b1-2)Man(a1-3)[Neu5Ac(a2-3)Gal(b1-3)GlcNAc(b1-2)Man(a1-6)]Man(b1-4)GlcNAc(b1-4)GlcNAc
Method in brief: as §1

[10] = target: Neu5Ac(a2-3)Gal(b1-3)GlcNAc(b1-3)Gal(b1-3)GlcNAc
Method in brief: as §1

[11] = target: Neu5Ac(a2-3)Gal(b1-3)GlcNAc(b1-3)Gal(b1-4)GlcNAc
Method in brief: as §1

[12] = target: Neu5Ac(a2-3)Gal(b1-3)GlcNAc(b1-3)GalNAc
Method in brief: as §1

[13] = target: Neu5Ac(a2-3)Gal(b1-3)GlcNAc(b1-4)Gal(b1-4)Glc
Method in brief: as §1

[14] = target: Neu5Ac(a2-3)Gal(b1-3)GlcNAc(b1-6)GalNAc
Method in brief: as §1

[15] = target: Neu5Ac(a2-3)Gal(b1-3)GlcNAc6S
Method in brief: as §1

[16] = target: Neu5Ac(a2-3)Gal(b1-3)[Fuc(a1-4)]GlcNAc
Method in brief: as §1

[17] = target: Neu5Ac(a2-3)Gal(b1-3)[Fuc(a1-4)]GlcNAc(b1-3)Gal(b1-3)[Fuc(a1-4)]GlcNAc
Method in brief: as §1

[18] = target: Neu5Ac(a2-3)Gal(b1-3)[Fuc(a1-4)]GlcNAc(b1-3)Gal(b1-4)[Fuc(a1-3)]GlcNAc
Method in brief: as §1

[19] = target: Neu5Ac(a2-3)Gal(b1-3)[GlcNAc(b1-6)]GalNAc
Method in brief: as §1

[20] = target: Neu5Ac(a2-3)Gal(b1-3)[Neu5Ac(a2-6)]GalNAc
Method in brief: as §1

[21] = target: Neu5Ac(a2-3)Gal(b1-3)[Neu5Ac(a2-6)]GlcNAc(b1-3)[Fuc(a1-3)[Gal(b1-4)]GlcNAc(b1-6)]Gal(b1-4)Glc
Method in brief: as §1

[22] = target: Neu5Ac(a2-3)Gal(b1-3)]Neu5Ac(a2-3)Gal(b1-4)]GlcNAc
Method in brief: as §1

[23] = target: Neu5Ac(a2-3)Gal(b1-4)Glc
Method in brief: as §1

[24] = target: Neu5Ac(a2-3)Gal(b1-4)GlcNAc
Method in brief: as §1

[25] = target: Neu5Ac(a2-3)Gal(b1-4)GlcNAc(b1-2)Man
Method in brief: as §1

[26] = target: Neu5Ac(a2-3)Gal(b1-4)GlcNAc(b1-2)Man(a1-3)[GlcNAc(b1-4)][Neu5Ac(a2-3)Gal(b1-4)GlcNAc(b1-2)Man(a1-6)]Man(b1-4)GlcNAc(b1-4)GlcNAc
Method in brief: as §1

[27] = target: Neu5Ac(a2-3)Gal(b1-4)GlcNAc(b1-2)Man(a1-3)[Neu5Ac(a2-3)Gal(b1-4)GlcNAc(b1-2)Man(a1-6)]Man(b1-4)GlcNAc(b1-4)GlcNAc
Method in brief: as §1

[28] = target: Neu5Ac(a2-3)Gal(b1-4)GlcNAc(b1-2)Man(a1-3)[Neu5Ac(a2-3)Gal(b1-4)GlcNAc(b1-2)Man(a1-6)]Man(b1-4)GlcNAc(b1-4)[Fuc(a1-6)]GlcNAc
Method in brief: as §1

[29] = target: Neu5Ac(a2-3)Gal(b1-4)GlcNAc(b1-2)Man(a1-3)[Neu5Ac(a2-6)Gal(b1-4)GlcNAc(b1-2)Man(a1-6)]Man(b1-4)GlcNAc(b1-4)GlcNAc
Method in brief: as §1

[30] = target: Neu5Ac(a2-3)Gal(b1-4)GlcNAc(b1-2)[Neu5Ac(a2-3)Gal(b1-4)GlcNAc(b1-4)]Man(a1-3)[GlcNAc(b1-4)][Neu5Ac(a2-3)Gal(b1-4)GlcNAc(b1-2)[Neu5Ac(a2-3)Gal(b1-4)GlcNAc(b1-6)]Man(a1-6)]Man(b1-4)GlcNAc(b1-4)GlcNAc
Method in brief: as §1

[31] = target: Neu5Ac(a2-3)Gal(b1-4)GlcNAc(b1-2)[Neu5Ac(a2-3)Gal(b1-4)GlcNAc(b1-4)]Man(a1-3)[GlcNAc(b1-4)][Neu5Ac(a2-3)Gal(b1-4)GlcNAc(b1-4)Man(a1-6)]Man(b1-4)GlcNAc(b1-4)GlcNAc
Method in brief: as §1

[32] = target: Neu5Ac(a2-3)Gal(b1-4)GlcNAc(b1-2)[Neu5Ac(a2-3)Gal(b1-4)GlcNAc(b1-6)]Man(a1-6)[Neu5Ac(a2-3)Gal(b1-4)GlcNAc(b1-2)Man(a1-3)]Man(b1-4)GlcNAc(b1-4)GlcNAc
Method in brief: as §1

[33] = target: Neu5Ac(a2-3)Gal(b1-4)GlcNAc(b1-2)[Neu5Ac(a2-3)Gal(b1-4)GlcNAc(b1-6)]Man(a1-6)[Neu5Ac(a2-3)Gal(b1-4)GlcNAc(b1-2)Man(a1-3)][GlcNAc(b1-4)]Man(b1-4)GlcNAc(b1-4)GlcNAc
Method in brief: as §1

[34] = target: Neu5Ac(a2-3)Gal(b1-4)GlcNAc(b1-3)Gal
Method in brief: as §1

[35] = target: Neu5Ac(a2-3)Gal(b1-4)GlcNAc(b1-3)Gal(b1-3)GlcNAc
Method in brief: as §1

[36] = target: Neu5Ac(a2-3)Gal(b1-4)GlcNAc(b1-3)Gal(b1-4)GlcNAc
Method in brief: as §1

[37] = target: Neu5Ac(a2-3)Gal(b1-4)GlcNAc(b1-3)Gal(b1-4)GlcNAc(b1-2)Man(a1-3)[Neu5Ac(a2-3)Gal(b1-4)GlcNAc(b1-3)Gal(b1-4)GlcNAc(b1-2)Man(a1-6)]Man(b1-4)GlcNAc(b1-4)GlcNAc
Method in brief: as §1

[38] = target: Neu5Ac(a2-3)Gal(b1-4)GlcNAc(b1-3)Gal(b1-4)GlcNAc(b1-3)Gal(b1-4)GlcNAc
Method in brief: as §1

[39] = target: Neu5Ac(a2-3)Gal(b1-4)GlcNAc(b1-3)Gal(b1-4)GlcNAc(b1-3)Gal(b1-4)GlcNAc(b1-2)Man(a1-3)[Neu5Ac(a2-3)Gal(b1-4)GlcNAc(b1-3)Gal(b1-4)GlcNAc(b1-3)Gal(b1-4)GlcNAc(b1-2)Man(a1-6)]GalNAc
Method in brief: as §1

[40] = target: Neu5Ac(a2-3)Gal(b1-4)GlcNAc(b1-3)Gal(b1-4)GlcNAc(b1-3)GalNAc
Method in brief: as §1

[41] = target: Neu5Ac(a2-3)Gal(b1-4)GlcNAc(b1-3)Gal(b1-4)GlcNAc(b1-3)[Neu5Ac(a2-3)Gal(b1-4)GlcNAc(b1-3)Gal(b1-4)GlcNAc(b1-6)]GalNAc
Method in brief: as §1

[42] = target: Neu5Ac(a2-3)Gal(b1-4)GlcNAc(b1-3)Gal(b1-4)GlcNAc(b1-6)[Gal(b1-3)]GalNAc
Method in brief: as §1

[43] = target: Neu5Ac(a2-3)Gal(b1-4)GlcNAc(b1-3)Gal(b1-4)[Fuc(a1-3)]GlcNAc
Method in brief: as §1

[44] = target: Neu5Ac(a2-3)Gal(b1-4)GlcNAc(b1-3)GalNAc
Method in brief: as §1

[45] = target: Neu5Ac(a2-3)Gal(b1-4)GlcNAc(b1-3)[Neu5Ac(a2-3)Gal(b1-4)GlcNAc(b1-6)]GalNAc
Method in brief: as §1

B1: PX9961H-bth-557-24-557 (Bacteroides thetaiotaomicron) (protein)
chain: EETRTEVEKKNYMNNAEEAKDVLLGVYRTNTLDAMYGYYLSILFNLGTDISQVEGSGNENFRIIPTNSFPTTQSEVQQTWAALYTGIYRANDFLERISNKIGSYTTTDKKLATLYIAEARALRGMFYFELVRRFGNVVLMTSTQMSNQNPATYVQSAPEKVYEYIEDDLLYACDILPYATDDQYRESNDYRFSKGAALGLLTKVYATWAGYPVKDESKWEAAAKTARILVESGKHGLLKDYEQLWKNTCNGTWDPTESLIEISFYSPTVSGNSDPVGRIGKWNGVKTTAIAGVRGSCAANVKVVHTFVLDWREDVSDIRRDLSIANYQYTDTKKSLWVAGASDTDESAAEKDADPTKAQKNKQNYTPAKWDIQKYVTTNSFINNDKSNVNWYFLRYADVLLLYAEALNEWKHGPDAEAYNAINAVRRRGYGNPSNTSACDLPQGLDETSFREAVRKERSYELSFEGHRRQDLIRWGIYYKTVQATAKELGYWWEGTGSPNYSVATYTEEGKHELFPIPQRDMDLCIQFNQNPKW
- glycan array binding signal (z-score) [1]: -0.207
- glycan array binding signal (z-score) [2]: -0.456
- glycan array binding signal (z-score) [3]: -0.225
- glycan array binding signal (z-score) [4]: -0.483
- glycan array binding signal (z-score) [5]: -0.315
- glycan array binding signal (z-score) [6]: -0.454
- glycan array binding signal (z-score) [7]: -0.556
- glycan array binding signal (z-score) [8]: -0.392
- glycan array binding signal (z-score) [9]: -0.188
- glycan array binding signal (z-score) [10]: -0.165
- glycan array binding signal (z-score) [11]: -0.413
- glycan array binding signal (z-score) [12]: -0.552
- glycan array binding signal (z-score) [13]: 0
- glycan array binding signal (z-score) [14]: 0.005
- glycan array binding signal (z-score) [15]: 0.048
- glycan array binding signal (z-score) [16]: -0.128
- glycan array binding signal (z-score) [17]: -0.272
- glycan array binding signal (z-score) [18]: 0.056
- glycan array binding signal (z-score) [19]: -0.24
- glycan array binding signal (z-score) [20]: -0.299
- glycan array binding signal (z-score) [21]: -0.186
- glycan array binding signal (z-score) [22]: -0.127
- glycan array binding signal (z-score) [23]: -0.48
- glycan array binding signal (z-score) [24]: -0.308
- glycan array binding signal (z-score) [25]: -0.255
- glycan array binding signal (z-score) [26]: -0.549
- glycan array binding signal (z-score) [27]: -0.412
- glycan array binding signal (z-score) [28]: -0.627
- glycan array binding signal (z-score) [29]: 0.063
- glycan array binding signal (z-score) [30]: -0.34
- glycan array binding signal (z-score) [31]: -0.484
- glycan array binding signal (z-score) [32]: 0.043
- glycan array binding signal (z-score) [33]: -0.382
- glycan array binding signal (z-score) [34]: -0.075
- glycan array binding signal (z-score) [35]: -0.46
- glycan array binding signal (z-score) [36]: -0.442
- glycan array binding signal (z-score) [37]: -0.274
- glycan array binding signal (z-score) [38]: 0.149
- glycan array binding signal (z-score) [39]: 0.048
- glycan array binding signal (z-score) [40]: 0.076
- glycan array binding signal (z-score) [41]: 0.001
- glycan array binding signal (z-score) [42]: -0.144
- glycan array binding signal (z-score) [43]: -0.27
- glycan array binding signal (z-score) [44]: -0.024
- glycan array binding signal (z-score) [45]: -0.467

— the supplement of paper PMC8728848
